Experimental data as given in the supplement of paper PMC10338343.
± gives the standard deviation. The list shows a part of the results, in another mix than the full data.

Test system: MIWI (PIWIL1) piRISC loaded with piRNA #1 (30 nt)
Assay: pre-steady-state target cleavage rate (min^-1); MIWI and MILI are mouse PIWI proteins and EfPiwi is from a freshwater sponge; tags in brackets are library labels; higher = faster piRNA-guided slicing of the target
Details: guide: piRNA #1 5'p-UGAGGUAGUAGGUUGUAUAGUAUCCAGAGG; auxiliary factor: 500 nM mouse GTSF1
How it was run: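 Reactions were run for 0–8 or 0–960 min at 33 °C in HEPES–potassium acetate buffer, combining 1 nM active affinity-purified piRISC with one synthetic guide, […] transcribed, DNA-blocked target RNA library and, in some cases, 500 nM GTSF1 partner protein. Sequencing of uncleaved targets followed, with normalisation to depth and to weakly complementary targets. Three trials were pooled, k3 was capped at 0.0001 min^-1, and the pre-steady-state cleavage rate was taken from a burst-and-steady-state fit.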
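Further: 1 nM active piRISC with 0.1 nM target library at 33 °C single turnover.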

Row | Sequence | pre-steady-state target cleavage rate
1 | GGAGACCUUACUAUACAACCUACUUGCUCA | 0.258 ± 0.025
2 | GGUCUGGAGUACUAUACAACCUACUACCUCA | 1.57 ± 0.11
3 | GGAGACCUAUGAUAACAACCUCACUACCUCA | 0.00789 ± 0.0021
4 | GGAGAGGAUACUAUACAACCUACAACCUCA | 0.624 ± 0.047
5 | GGAGACGAUAGUAUACAACCUUCUACCUCA | 0.51 ± 0.031
6 | GGAGACCUUACUAACAACCUACUACCUCA | 0.189 ± 0.025
7 | GGAGACCAUACUAUACAACCUACUACGUGA | 0.532 ± 0.048
8 | GGAGACCUUACUAUACUUCCUACUACCUCA | 0.0399 ± 0.0077
9 | GCUCUGGAGUACUAUACAACCUACUACCUCA | 1.79 ± 0.1
10 | GGAGACCUAUGUAUAGAACCUACUACCACA | 0.00883 ± 0.0027
11 | GGAGAGGAUACUGAUACAACCUACUACCUCA | 1.3 ± 0.076
12 | CCUCUGGAUACAUAUACAACCUACUACCUCA | 1.73 ± 0.12
13 | GCUCUGGAUACUAUACAUCCUACUAGCUCA | 0.48 ± 0.045
14 | GGAGACCAUACUAUACAACCUACUACCAGA | 0.907 ± 0.073
15 | GGAGUUGGAUACUAUACAACCUACUACCUCA | 1.55 ± 0.074
16 | CGUCUGGAUACUAUACAACCUACAACCUCA | 0.48 ± 0.047
17 | GGAGACCUAACUAUACAACCUACUACUUCA | 1.42 ± 0.15
18 | GGAGACCUAACUAUACAACCUACUACGACA | 0.379 ± 0.065
19 | GGACUGGAUACUAUACAUCCUAGUACCUCA | 0.318 ± 0.068
20 | GGUCUGGAUACUAUACUUGCUACUACCUCA | 0.0549 ± 0.013

Row | Sequence | pre-steady-state target cleavage rate
21 | CCUCUGGAUACUAUACAACCUAGAUCCUCA | 0.0633 ± 0.016
22 | GGAGUGGAUACUAUUGUACCUACUACCUCA | 0.0769 ± 0.014
23 | GGACUGGAUCACUAUACAACCUACUACCUCA | 1.41 ± 0.15
24 | GGAGACCUAUGAUAUGUACCAACAACCUCA | < 0.0001
25 | GGAGUGGAUACUAUACAACCUAAUACCUCA | 0.541 ± 0.048
26 | GGACUGGAUACUAUACAUCCUACUUCCUCA | 0.124 ± 0.022
27 | GGAGACCAUACUAUACUAGCUACUACCUCA | 0.181 ± 0.019
28 | GGACUGGAUACUAUACAAACUACUACCUCA | 0.914 ± 0.042
29 | GGAGUGGAUACUAUACAAGCUACAACCUCA | 0.583 ± 0.043
30 | GGAGUGGUUACUAUACAAGCUACUACCUCA | 0.764 ± 0.039
31 | CCUCUGCAUACUAUAGAACCUACUACCUCA | 0.979 ± 0.051
32 | GGACUGGGAUACUAUACAACCUACUACCUCA | 1.81 ± 0.11
33 | GGAGUGGAUACUAUAGAACCAACUACCUCA | 0.049 ± 0.0053
34 | GCUCUGGAUACUAUACAUCGUACUACCUCA | 0.579 ± 0.047
35 | GGAGACGAUACUAUACAACCUACUACCGCA | 0.805 ± 0.055
36 | GGUCUCGAUACUAUACAACCUACUACCUGA | 0.78 ± 0.12
37 | GGAGACCUAUCUGAUACAACCUACUACCUCA | 0.042 ± 0.012
38 | GGAGACCUAUCUAUACAACCUACGUACCUCA | 0.312 ± 0.049
39 | CCUUCUGGAUACUAUACAACCUACUACCUCA | 2.22 ± 0.12
40 | GGUCUGGAUACUAGACAACCUACUACCUCA | 1.6 ± 0.087
